# Experimental data: PubChem BioAssay AID651820 (National Center for Advancing Translational Sciences (NCATS), 2012)
# Screen size: about 340,000 compounds; about 12,000 (3.5%) were called active. The inconclusive results got no clear call from the source; some entries with a clear call stand among them for comparison. Calls follow the shape of the dose curve; as a rule, active = well fitted inhibition curve with a large enough effect; inconclusive = small, poorly fitted or top-dose-only effect, or another doubt; inactive = no such curve, though single readings can be large or run the other way. Potencies of inconclusive entries are left out as doubtful fits.
# Assay: qHTS Assay for Inhibitors of Hepatitis C Virus (HCV)
# Conditions: Huh7.5.1 HCVcc-Cre (HCVcc is cell-culture hepatitis C virus) infection, luciferase reporter, 44 h; activity change, negative = inhibition: at 41.8 µM (top of the series)
# Summary of the method: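 Reporter virus HCVcc-Cre (~0.5 moi) infects cells exposed to compound; seeding density 1,000 cells/well with 4 h settling beforehand. Luminescence, 15 sec read, taken 44 h post-infection following a 15 min RT substrate incubation.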
# % is scaled to controls: 0 for no effect and ±100 for the full control effect; potency is read from the fitted curve at half-maximal effect; tags tell the direction and shape of the fitted curve.
Structure (SMILES),Potency,"activity change, negative = inhibition"
Cc1cccc(C)c1-n1cccc1/C=C1\SC(=S)N(c2cccc(C(=O)O)c2)C1=O,inactive,
COC(=O)c1ccc(C(=O)OC)c(NC(=O)CN2CCCCC2)c1,"inconclusive [inhibitor, partial curve]",
COc1ccc(NC(=O)c2cc(-c3cccs3)on2)c(OC)c1,inactive,
CCOc1cc(C(=O)Nc2ccc3c4c(cccc24)C(=O)N3CC)cc(OCC)c1OCC,"inconclusive [inhibitor, partial curve, poor fit]",
COc1ccc(C(=O)/C(=C/O)N=Nc2ccc(F)cc2)cc1,"inconclusive [inhibitor, partial curve]",
COC(=O)c1cc2c(C)nn(-c3ccccc3)c2s1,active: 6.31 µM,
COc1ccc(N2CCN(S(=O)(=O)c3ccc4c(c3)CCCC4)CC2)c([N+](=O)[O-])c1,active: 5.01 µM,
CC1CC(C)CN(C(=O)COC(=O)c2cc3ccccc3cc2O)C1 (stereo not drawn),"inconclusive [inhibitor, single point]",
CCOC(=O)C1(Cc2cccc(F)c2)CCN(C(=O)C2CCCO2)CC1 (stereo not drawn),inactive,
CCCCCn1c(NC(=O)c2ccco2)c(C(=O)OCC)c2nc3ccccc3nc21,"inconclusive [inhibitor, single point]",
N#CCSc1nc2cc(C(=O)N3CCCC3)ccc2c(=O)n1Cc1ccccc1,"inconclusive [inhibitor, single point]",
Cc1ccc(CSc2nc3ccccc3cc2C=O)cc1,"inconclusive [inhibitor, single point]",
Cc1ccc(OCCC(=O)OCC(=O)NC(=O)NC2CCCC2)cc1,,inactive: 1.47% [at 8.37 µM]
CC1CCC2C(C)C(=O)OC3OC4(C)CCC1C32OO4 (stereo not drawn),inactive,
N#Cc1ccc(C23CC4(C2)[C@H](CN(CC2CCCCC2)[C@@H]4c2ccccc2)C3c2ccc(Cl)nc2)cc1 (stereo partly drawn),inactive,
COc1cc(CN2CCN(C(=O)c3ccccc3F)CC2)cc(OC)c1OC,inactive,
CCOC(=O)N1CCC(NC(=O)CCc2c(C)nc3c(c(C)nn3-c3ccccc3)c2C)CC1,inactive,
COc1cccc(C(=O)Nc2ccc3c(cc2=O)[C@@H](NC(C)=O)CCc2cc(OC)c(OC)c(OC)c2-3)c1,active: 31.6 µM,
CC1C=CCC2C(=O)N(c3cccc(C(=O)NCc4ccccc4)c3)C(=O)C12 (stereo not drawn),,inconclusive: -39.3% [inhibitor]
CCOc1cc(N2CCOCC2)c(OCC)cc1NC(=O)c1ccc(OC)c(S(=O)(=O)N2CCOCC2)c1,inactive,
C#CCn1c(S(=O)(=O)Cc2ccc(F)cc2)nc(-c2ccccc2)c1-c1ccccc1,"inconclusive [inhibitor, single point]",
O=C1CC(SCCc2nc3ccccc3[nH]2)C(=O)N1c1ccc(F)c(Cl)c1 (stereo not drawn),inactive,
O=c1[nH][nH]cc1C=Nc1ccccc1O,"inconclusive [inhibitor, partial curve]",
CCC1(c2ccccc2)NC(=O)N(CC(=O)Nc2ccc(Cl)c(S(=O)(=O)N3CCCCC3)c2)C1=O (stereo not drawn),"inconclusive [inhibitor, partial curve]",
CCOc1cc(NS(C)(=O)=O)c(OCC)cc1NC(=O)c1cccs1,"inconclusive [inhibitor, single point]",

Structure (SMILES),Potency,"activity change, negative = inhibition"
CN1CCC(N(C)S(=O)(=O)c2ccc(C(C)(C)C)cc2)CC1,"inconclusive [inhibitor, single point]",
COc1ccc(OC)c(NC(=O)c2ccc(OC3CSC3)cc2)c1,"inconclusive [inhibitor, single point]",
Cc1nn(-c2ccccc2)c2[nH]c(=O)c(CNCc3ccc4c(c3)OCO4)cc12,inactive,
CC(C)C[C@@H](CN1CCC[C@@H]1CN1C(=O)C(=O)NC[C@@H]1Cc1ccccc1)N1C[C@H](Cc2ccc(O)cc2)N(CC2CCCCCC2)C(=O)C1=O,"inconclusive [inhibitor, single point]",
CCCc1cn(S(=O)(=O)c2ccc(OC)cc2OC)nc1N,"inconclusive [inhibitor, single point]",
Cn1c(=O)n(C/C=C/c2ccccc2)c(=O)c2c1nc1n2CCCN1c1ccc(F)cc1,active: 11.2 µM,
Cc1sc2ncnc(Nc3ccc(O)cc3)c2c1C,"inconclusive [inhibitor, single point]",
CNS(=O)(=O)c1cccc(C(=O)OCC(=O)c2c(N)n(Cc3ccccc3)c(=O)n(C)c2=O)c1,"inconclusive [inhibitor, single point]",
CSc1nnc(NC(=O)c2nc(S(=O)(=O)Cc3ccccc3)ncc2Cl)s1,active: 12.6 µM,
Cc1ccc(S(=O)(=O)Nc2ccc(-c3nnc(SCc4ccccc4Cl)o3)cc2)cc1,inactive,
CC(C)C(=O)N1CCN(S(=O)(=O)c2ccc3ccccc3c2)CC1,"inconclusive [inhibitor, single point]",
O=C(NCc1cccnc1)c1ccc(-c2cc(Cl)ccc2Cl)o1,"inconclusive [inhibitor, partial curve]",
Cc1ccc2nc(-c3cccc(S(=O)(=O)N4CCCC4)c3)cn2c1,"inconclusive [inhibitor, single point]",
COC(=O)CCc1c(C)[nH]c(C(=O)OCc2ccccc2)c1C,inactive,
O=C(c1cc2ccccc2o1)N1CCN(Cc2ccc3c(c2)OCO3)CC1,"inconclusive [inhibitor, single point]",
O=C(NCCCN1CCN(c2ccc(F)cc2)CC1)Nc1ccc([N+](=O)[O-])cc1,"inconclusive [inhibitor, partial curve]",
CC(=O)NNc1nc2ccccc2s1,inactive,
COc1ccc(CC(=O)NCc2ccco2)cc1OC,inactive,
Cc1ccc(C)c(NC(=O)c2cnn3ccccc23)c1,inactive,
Cc1ccc(N(CC(=O)Nc2cc(C)cc(C)c2)S(=O)(=O)c2cccc3nonc23)cc1,"inconclusive [inhibitor, single point]",
O=C(CSc1ccc(-c2ccc(F)cc2)nn1)N1CCOCC1,inactive,
COc1cccc(NC(=O)CSc2nnc(CNC(=O)c3ccccc3F)o2)c1,"inconclusive [inhibitor, single point]",
CCC(NC(=S)NCc1ccc(F)cc1)c1ccccc1 (stereo not drawn),"inconclusive [inhibitor, single point]",
NS(=O)(=O)c1ccc(NC(=O)c2ccc3c(c2)CCN3S(=O)(=O)c2ccccc2)cc1,active: 31.6 µM,
O=C(c1ccc2c(Cl)c3c(nc2c1)CCCC3)N1CCN(c2ccc(F)cc2)CC1,"inconclusive [inhibitor, single point]",

Structure (SMILES),Potency,"activity change, negative = inhibition"
O=C1Nc2ccc3sc4ccccc4c3c2C1=O,"inconclusive [inhibitor, partial curve]",
COc1cc(C2c3cc4c(cc3C(OC3OC5COC(c6cccs6)OC5C(O)C3O)C3COC(=O)C23)OCO4)cc(OC)c1O (stereo not drawn),inactive,
CCOC(=O)c1sc(C)c2c1NC(C)(c1cccc3ccccc13)NC2=O (stereo not drawn),"inconclusive [inhibitor, single point]",
O=C(NCc1ccc2c(c1)OCO2)c1cc2c(s1)CS(=O)(=O)C2,"inconclusive [inhibitor, full curve, poor fit]",
O=[N+]([O-])c1cc2cccnc2c2ncccc12,"inconclusive [inhibitor, single point]",
CCOC(=O)Cc1ccc(NS(=O)(=O)c2ccc(SC)cc2)cc1,"inconclusive [inhibitor, single point]",
CCc1nc(Nc2ccccc2)c2oc3ccccc3c2n1,"inconclusive [inhibitor, partial curve]",
Cc1ccc(N(C(=O)c2snc(C(N)=O)c2N)C(C(=O)NCCC(C)C)c2ccco2)cc1 (stereo not drawn),active: 31.6 µM,
CCC(C)NC(=O)c1ccc2nc(Cc3ccc(OC)cc3)oc2c1 (stereo not drawn),inactive,
CC(C)c1cccc(-c2ccc3c(c2)S(=O)(=O)c2cccc(C(=O)NCc4ccco4)c2C3=O)c1,"inconclusive [inhibitor, single point]",
Cc1onc(-c2c(Cl)cccc2Cl)c1C(=O)c1c[nH]c(C(=O)NCC2CCCO2)c1 (stereo not drawn),active: 11.2 µM,
O=c1cnc(-c2ccc(Cl)cc2)cn1O,inactive,
CCCc1cc(C(=O)Nc2sc(C)c(C)c2C(=O)OCC)no1,"inconclusive [inhibitor, full curve]",
CC(C)c1ccc(OCC(O)CNC(C)c2ccccc2)cc1 (stereo not drawn),"inconclusive [inhibitor, single point]",
CC(Cc1ccccc1)[n+]1cc(/N=C(\N)[O-])on1 (stereo not drawn),inactive,
CC(C)CNC(=O)c1cc(-c2ccco2)on1,inactive,
CCN1CCN(c2cc(=O)n(Cc3ccc(F)cc3)c(=O)[nH]2)CC1,inactive,
O=C1c2ccccc2C(O)N1c1ccccc1 (stereo not drawn),"inconclusive [inhibitor, single point]",
COc1ccc(NC(=O)C2CCCC2)cc1,inactive,
Cc1ccc(C(=O)NNc2cc(N3CCCC3)nc(N3CCCC3)n2)cc1,"inconclusive [inhibitor, full curve]",
COc1ccc2cc(C3=CCCCC3)ncc2c1,inactive,
O=C(Nc1cccc(S(=O)(=O)N2CCCCC2)c1)Nc1ccc(Cl)cc1Cl,"inconclusive [inhibitor, single point]",
CCOc1ccccc1OCCOCCOc1c(Cl)cccc1Cl,"inconclusive [inhibitor, single point]",
